Test results reported in the supplement of paper PMC12632987.
Over roughly 4,500 sequences, “median log2 fold change of GCK-ALFA target abundance (FLAG IP / Myc IP barcode read proportion)” has its median near 0.078; the lowest 2% begin near -0.6. Some of the results follow.

B1: GBRAP_82_6869 (protein)
chain: KPVIVAEVVSMEPLTPEQMAEIEKVAEELKKEAAAKGIELKVIVADASDEAMEEMDKKLREIKKKYPDAVVVTGAVAKAEDVPEMLRAVADEALDEALER
B2: GBRAP_52_5950 (protein)
chain: ALEEALALLREALAAVLAGKEEEARAILRELVERFDLETIRAAAVALAKSLAGADDAELEAAVRLFDMLEDVLIEAGVPEEEAELIRGDAEAALAKAHAA
B3: GBRAP_53_6421 (protein)
chain: SSARIERLIAEIRAATEAATKADAEERKKLAEEIGALFAELKAAGMPDEEITALAEEVARKLKAAGADVSVLVALADTFAALGLDDATAAFGEVIVEDLE
B4: GBRAP_80_6758 (protein)
chain: SRAELEAALAELKALDPELGAELAAVLEEAIAAGVSVETAAAAVKALVELYKLDPEKARELARELIAELREAIAAGDVEGAEAALIDAESDALVEVEELE
B5: GBRAP_128_3221 (protein)
chain: AAEAAVARVRELLEAIKTADAATRKALAAELAALVASQPVDVAEAMAEVIEELAPELSEEDLEVLMDAFEAAARATSDDVALVLTEMAIIMGEEILELEE
B6: GBRAP_125_3091 (protein)
chain: EEETLREALRRLALAMGFSEEDAELLAELAAESSVRQALYALFAAEGYEEAADAVARLTEEQAREVLLRVSEWLKEHPNASKEEVVAKVLEAAEEALAAA
B7: GBRAP_184_5206 (protein)
chain: EVKEFEIEVENEEELKKKLEELLKELEGFKGTVYIIVKAPEFTEEMAKILLEKVKEIKEKGYATNIVVEIEGEVSEEVEDLLLEGAREIGANVVIALSEE
B8: GBRAP_26_5484 (protein)
chain: KEREILDELRARVREILADEPAEVQAAVVAEAEDRLIEFAEVVEENIDDEEKIKEAKEKALKELREFLEELGVPKEKQEKVVKALEEALKRVEEAIKKEA
B9: GBRAP_11_2640 (protein)
chain: KKEKYKKALELAEKAIELLDKLLKEGVDNKELWKEIEKLLKELKELVKEIPDKALQKEVEIALELLEEAKKDKENAEEYVKLLRNALRVIKAELEELIEE
B10: GBRAP_53_6390 (protein)
chain: SSARLEALIAELEALIEALKTADAAEAVALAKRARALLLELARAGLPEERLVELVRRFAEAAAPKPELRPVLIALAQELAALGRDEAAAEVAEALVEELE
B11: GBRAP_160_4324 (protein)
chain: KEELEKLKKEIREIAEEAIKMIEGESAEQRITIVKVALGEIILEVEENEAVSEETEEKVAEIADEAEAYLDANPDLSEEEVIALLREAEEKILKILEEEA
B12: GBRAP_53_6415 (protein)
chain: AAARIAALKAEILRLADEAAAADEETRARLVEEIARALAEAAAAGLPAAELTALAREVADRLAAAGAPDSDLVTLANALAALGLEEATAAVAERAVEELE
B13: GBRAP_52_6305 (protein)
chain: SAARMRALAEELVALTRAGDEEGVRALARRIAATLSDEELLALAEELAALAATWDEAELDRLMRMLDIWEDVAEEEGVDPGVIARARGIIVTALYAAELA
B14: GBRAP_122_2945 (protein)
chain: AATAARLEALVAAMVAALEAGDEERLAALARELVRLFETVSPEQARAAVERLLERVAGDEEAKERALRALLAAFTENEPLTPAQEAAADVVAEEFDKLSE
B15: GBRAP_160_4058 (protein)
chain: EEKKKELLELVEEARELILETIDEDGVDAAIVVAEGEFGAVIMEAEESEEASEELPDELAKIRDDLVAALKAAKDASPEEQKAIVEKAAEEAKKKIEELM
B16: GBRAP_11_2846 (protein)
chain: EKEKLEEIAKKAEEVEKLLDELIAAGPDDEELWKKVREKLEELKKLVKEHLDESEQELAELAEEELERARADPENALHHLELARAFVRTLKGQVLLKIEE
B17: GBRAP_78_6584 (protein)
chain: EKEELYDKIVEELDRAHELAQQLPPELRNEVLAELTEALSDLYDAETEGNEEESLEEAIRHLERALAIAEAADHPVAPALAAALRAAKELAEELLKLVKE
B18: GBRAP_184_5127 (protein)
chain: ELVRRAVEATDAEELIRKAREVVEEAAARGLRLDLAVFAENMSVEEIIRVIEALGEIRRAHPEVAVTLVVEDELSEEEIDRLVEAADRNGVRLVLAIKEE
B19: GBRAP_166_4872 (protein)
chain: SMEEKLKEAKKKILELIKEAKELDAEERTEKYIEIGEIIKELKEEGASEEEILELIREIFKAAKEEGLDVRLLAGIIINVVGFDEETIDKVEKILEEVLK
B20: GBRAP_11_2863 (protein)
chain: KKEEAEKAAKLAEEAIKVLDELLKEGVDNEELRKKLKELLEELQKLVEENFDEDEKELVEIAIENFEKAQKDPANAEEHIQNALAALRVLQGQLLLRIDE
B21: GBRAP_9_7171 (protein)
chain: DKEKKEKIKKVVLEAFEEILKVVPEEKKPLVEKAKEKAKKELEALLKDPNTTLEEFKEKAKKLLEELVKEMKEAVDPETAAAVEAIALTAIEEIDEILEE
B22: GBRAP_35_5514 (protein)
chain: STDDTIAEMLESYIEDLTLAVPELDPETLHTLTLGAAEMARELIEDNKNNKEIVKRIKESLERLLEALEARGLDDPLLREAAERVREVIEYAEEVLKEIE
B23: GBRAP_184_5357 (protein)
chain: EVEHLSVTVTTEAEAREKLAEAAARIRASGRPTVLVVTLENADLETVETAARLLAELRAEGLIERGIIDVPDDRSEEEIDKMVAIADKYGVDLVVAIPEE
B24: GBRAP_128_3180 (protein)
chain: SLEEVRARTRAAMEAIAASDPETARAIAEELFDWLKTLSDEEAEAAVDEILARLPELTAEHLEILADVAREKRPTYTPEKAELVADLEVEALNLLEELEE
B25: GBRAP_43_5777 (protein)
chain: SKEIVEGALDTAKLIAEDPNIDDDTKVKAIQAAFDLAADEGYVDEELVKEVIDAANASLSAEALKKIAKHLDERAKKYPEFAEVFKKAKADVEAAIKAKE
B26: GBRAP_52_6180 (protein)
chain: MEEEIRKAIEEIYELVKAGKLEEAKKLAEELVKSLNEEELKLLVKEYGKFAEEQPLEDEDAVFETAEIIAEAIEEAGKDEALAEDLLAAAAAALYKKELE
B27: GBRAP_160_4377 (protein)
chain: SEELKKLIEEIKKLLEEFEKEAENLTPEEAKILAKGVLSEVAALVFENEEVSEETEDEIMEIIDKALAELDKLKNATPEEIVAVTKEAIEKIIELIEKEI
B28: GBRAP_160_4359 (protein)
chain: SETLERLIKEIREATEEVIKEIDKLSREEVAAVADGLFGEIAMEAVEDESMPDEVVDIIVEARDEIRKLLKEKKDASPEEIKKGIREITEKAIEKMKEAG
B29: GBRAP_166_4912 (protein)
chain: SMEEKVEKAKKEIEKLVKEMPKLDAEGQTEALIEIAEVIRELKEAGASEEEILEVLRFLAEKLKEEGLDVEHYMAIVAAAAEFDEEEMDKIDEIVEEVLK

What follows are binders tested against GABARAP, O95166 (assay: median log2 fold change of GCK-ALFA target abundance (FLAG IP / Myc IP barcode read proportion) (log2 ratio); each designed protein is fused to an ALFA-tag nanobody in HEK293 cells to bring the named protein to FLAG-tagged glucokinase (GCK); Myc marks an untargeted standard; higher = target protein stabilised (more abundant)). Details: target protein: 3xFLAG-MCP-GCK-ALFA reporter; HEK293 landing pad (RPLP).
GABARAP, O95166, sequence (O95166 whole entry, the tested form may be a part): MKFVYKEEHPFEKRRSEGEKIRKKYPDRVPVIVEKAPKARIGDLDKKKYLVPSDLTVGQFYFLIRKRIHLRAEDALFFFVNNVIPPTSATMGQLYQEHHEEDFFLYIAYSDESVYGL
Summary of the method: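 The readout is target abundance, the per-binder median log2 ratio of FLAG to Myc barcode read proportions. It came from HEK293 landing-pad cells carrying a recombined ALFA-nanobody-fused binder library, induced with 2 μg mL^−1 doxycycline and transfected with a plasmid for a FLAG-tagged target and a Myc-tagged standard. After 48 h, lysates were immunoprecipitated with anti-FLAG and anti-Myc, and circular RNA barcodes were reverse transcribed, amplified and sequenced. Each barcode needed a proportion of at least 10^−7 in both replicates and each binder at least 3 barcodes per replicate, a pseudocount of 10^−6 was added, and the replicates were pooled.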
In the case of B1, the “median log2 fold change” value is reported as 0.0109.
For B2, the “median log2 fold change” value was -0.0682.
In the case of B3, the “median log2 fold change” value is reported as 0.196.
For B4, the “median log2 fold change” value was 0.0397.
For B5, the “median log2 fold change” value was 0.0438.
With B6 the “median log2 fold change” value was 0.145.
With B7 the “median log2 fold change” value was -0.0683.
With B8 the “median log2 fold change” value was 0.267.
B9 was tested, and the “median log2 fold change” value was 0.233.
In the case of B10, the “median log2 fold change” value is reported as 0.0029.
B11 was tested, and the “median log2 fold change” value was -0.358.
For B12, the “median log2 fold change” value was 0.232.
In the case of B13, the “median log2 fold change” value is reported as 0.0566.
B14 was tested, and the “median log2 fold change” value was 0.226.
For B15, the “median log2 fold change” value was 0.148.
With B16 the “median log2 fold change” value was 0.197.
With B17 the “median log2 fold change” value was -0.203.
In the case of B18, the “median log2 fold change” value is reported as 0.183.
For B19, the “median log2 fold change” value was 0.402.
In the case of B20, the “median log2 fold change” value is reported as 0.201.
With B21 the “median log2 fold change” value was 0.342.
For B22, the “median log2 fold change” value was -0.908.
B23 was tested, and the “median log2 fold change” value was -0.0153.
For B24, the “median log2 fold change” value was 0.0856.
With B25 the “median log2 fold change” value was 0.283.
With B26 the “median log2 fold change” value was -0.133.
With B27 the “median log2 fold change” value was 0.173.
B28 was tested, and the “median log2 fold change” value was 0.141.
For B29, the “median log2 fold change” value was 0.304.
